Laboratory results from a compilation of properties of binary mixtures (doi:10.1016/j.molliq.2020.114841).
Some of these densities may be calculated back from excess volumes.

Assay: xn = mol fraction of the nth substance listed
Conditions: 101.3 kPa

CS(C)=O + CCOCC[n+]1ccn(CCC#N)c1.O=S(=O)([N-]S(=O)(=O)C(F)(F)F)C(F)(F)F
x2 = 0
Conditions	mass density [kg/m3]
293.15 K	1102.3
303.15 K	1092.3
313.15 K	1082.4
323.15 K	1072.5

CS(C)=O + COCCOCCn1cc[n+](CCC#N)c1.O=S(=O)([N-]S(=O)(=O)C(F)(F)F)C(F)(F)F
x2 = 0
Conditions	mass density [kg/m3]
293.15 K	1102.3
303.15 K	1092.3
313.15 K	1082.4
323.15 K	1072.5

CCOCC[n+]1ccn(CCC#N)c1.O=S(=O)([N-]S(=O)(=O)C(F)(F)F)C(F)(F)F + CS(C)=O
mass density [kg/m3]
Conditions	x1 = 0.0989	x1 = 0.1981	x1 = 0.2776	x1 = 0.3971	x1 = 0.5029	x1 = 0.597	x1 = 0.721	x1 = 0.798	x1 = 0.89	x1 = 1
293.15 K	1199.8	1261.8	1299.3	1338.7	1367.5	–	1414.8	–	–	1463
303.15 K	1195.9	1257	1292.2	1332.5	1360.6	1382	–	1420.7	1436.5	1454
313.15 K	1186.8	1247.9	1282.9	1323.1	1351.2	1372.5	1397	1410.9	1426.7	1444
323.15 K	–	–	1277.3	–	–	1363.9	–	1402.2	1417.8	1435

COCCOCCn1cc[n+](CCC#N)c1.O=S(=O)([N-]S(=O)(=O)C(F)(F)F)C(F)(F)F + CS(C)=O
mass density [kg/m3]
Conditions	x1 = 0.0989	x1 = 0.1981	x1 = 0.2776	x1 = 0.3971	x1 = 0.5029	x1 = 0.597	x1 = 0.721	x1 = 0.798	x1 = 0.89	x1 = 1
293.15 K	1212.2	–	1317.1	1355.7	1381.3	1399.9	1420.4	1431.4	1443.4	1456
303.15 K	1208.3	1272.8	–	1346.9	–	1390.9	1411.2	1422.3	–	1447
313.15 K	1199.7	1264.1	1299	1338.6	1364.2	1382.4	1402.6	–	–	1438
323.15 K	1190.5	–	1290.2	1329.9	1356	1374.2	1393.9	–	1416.2	1428
